# Assay results reported in PMC12040169 (PLOS Biology, 2025).
# This is one part of the list.
# System: T1, C. trachomatis L2/434/Bu expressing GFP (CTL2-GFP)
# T1 construct: L2/434/Bu GFP intracellular growth in HeLa cells
# Parameters: species or system HeLa; C. trachomatis total inclusion area by high-content imaging, normalised to DMSO
# Conditions: total inclusion area; 28.5 h, 10 µM; inhibitor
# Method in brief: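 High-content imaging followed the bulk GFP/resorufin measurement: fixed, Hoechst-stained cells were scored for GFP inclusions and host nuclei per well. Total inclusion area and count served as growth proxies, nuclei number as the viability proxy. MIC calculation matched the bulk assay.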
row,Structure (SMILES),% of control remaining
1,S=c1[nH]cnc2scc(-c3ccc(Cl)cc3)c12 [CBK094069],70.6563
2,O=C(COc1ccc(F)cc1)N1CCCC1c1cccc(Cc2ccc(F)cc2)n1 (stereo not shown) [CBK286235],138.485
3,CCN1CCN(C(=O)CN(c2ccccc2)S(=O)(=O)N(C)C)CC1 [CBK268222],88.3375
4,Cc1[nH]nc(O)c1Cc1ccccc1F [CBK105306],54.6223
5,Cc1cccc(CN2CCC[C@@H]3CN(C(=O)CC(C)C)C[C@@H]32)n1 [CBK285291],99.2939
6,Cc1cc(=O)n2c3ccccc3n(CC(O)CN3CCN(C(c4ccccc4)c4ccccc4)CC3)c2c1C#N (stereo not shown) [CBK268375],91.2681
7,N#Cc1ccc(CNC(=O)c2ccc(-c3ccc(OC(F)(F)F)cc3)nc2)cc1 [CBK156249],87.6111
8,Cn1c(=O)oc2cc(S(=O)(=O)NCc3ccccc3)ccc21 [CBK267568],78.4549
9,c1ccc(CN2CCC3(CC2)CNCc2ccccc2O3)cc1 [CBK282605],76.7134
10,CC(=O)NCC1CC(N2CCSCC2)=NO1 (stereo not shown) [CBK010367],70.3513
11,FC(F)(F)c1cccc(-c2cnn(-c3ccc4c(c3)OCO4)n2)c1 [CBK112664],82.0208
12,CC(=O)C1=C(C)N(CC2CCCO2)C(=O)C1(NC(=O)c1ccc(C(C)(C)C)cc1)C(F)(F)F (stereo not shown) [CBK268043],107.725
13,COc1nn(CC(=O)Nc2cccc(CCc3ccncc3)c2)c(=O)c2ccccc12 [CBK285560],99.9978
14,COc1ccc(Br)c(C(=O)Nc2[nH]nc(O)c2Cc2c(Cl)cccc2Cl)c1 [CBK084554],82.3657
15,Cc1cc2nc(CC(=O)NN)[nH]c2cc1C [CBK012180],130.717
16,O=C(CC1CCCC1)N1CCC(c2nnc(-c3ccsc3)o2)CC1 [CBK283381],76.5786
17,COc1ccccc1C1(O)CCN(Cc2ccccc2OCc2ccc3c(c2)OCO3)CC1 [CBK286337],78.4104
18,OC(COc1ccc2c(c1)OCO2)CN1CCN(C(c2ccccc2)c2ccccc2)CC1 (stereo not shown) [CBK074854C],96.6651
19,CN1CCN(C(=O)c2c(NS(=O)(=O)/C=C/c3ccccc3)sc3c2CCCC3)CC1 [CBK050417],108.828
20,COCC(=O)Nc1ccc(N2CCCC2=O)c(Cl)c1 [CBK256871],77.2692

row,Structure (SMILES),% of control remaining
1,CSc1ccc2cc(CSc3nnc(-c4cccs4)n3CC(=O)O)c(Cl)nc2c1 [CBK295298],134.051
2,O=C(Cc1ccc2c(c1)CCCC2)Nc1cccc(-c2nnn[nH]2)c1 [CBK297129],69.1379
3,Cn1cc(C(=O)Nc2ccccc2N2CCNCC2)c2ccccc21 [CBK034141T],97.7624
4,CCC1(CC)OC(NCc2ccccc2)=NC1=O [CBK122636],9.701
5,O=C(Nc1ccncc1)c1ccc2nc[nH]c2c1 [CBK269034],96.9374
6,Cc1ccc(C(=O)O)cc1NC(=O)C(C)Oc1cccc(Cl)c1 (stereo not shown) [CBK268331],83.5513
7,COc1ccc(CNC(=O)c2sc3ncnc(N(C)C4CCCCC4)c3c2C)cc1 [CBK294431],118.288
8,O=C(Nc1ccc(Cl)cc1)N1Cc2nc[nH]c2C[C@H]1c1nc(-c2ccncc2)no1 [CBK288964],82.2543
9,Fc1cc(Br)ccc1-c1cn(-c2ccccc2)nn1 [CBK113148],41.2908
10,CCOc1cc(C(c2c[nH]c3ccccc23)c2c[nH]c3ccccc23)cc([N+](=O)[O-])c1O [CBK266061],82.467
11,CC(=O)NCCSc1cc(NC(C)C)ncn1 [CBK105293],116.724
12,COC(=O)Cn1cnc2sc(C(=O)Nc3ccccc3OC)c(C)c2c1=O [CBK071808],113.586
13,Cc1cc(C2CCCCCN2C(=O)c2nn(C)cc2Cl)on1 (stereo not shown) [CBK284843],97.4998
14,COc1ccc(/C(C)=N/NC(=O)CSCc2cccc(Br)c2)cc1 [CBK261205],94.3282
15,Cc1ccnc(SCCn2c(N(C)Cc3ccccc3)nc3c2c(=O)n(C)c(=O)n3C)n1 [CBK269394],99.555
16,CCN(CC)CCNc1ncnc(N)c1[N+](=O)[O-] [CBK267287],95.059
17,Cc1ccc(C(=O)Nc2ccc(S(=O)(=O)N3CCCC3)cc2)cc1S(=O)(=O)Nc1ccccc1 [CBK268054],13.3209
18,CCc1cc(-c2n[nH]c(C)c2Oc2ccc(C(C)C)cc2)c(O)cc1O [CBK264940],82.4579
19,Cc1nn(C)cc1C(=O)NC1CCCC1 [CBK057851],72.3149
20,CCC(C)c1nnc(C2(c3ccc(Br)cc3)CCOCC2)o1 (stereo not shown) [CBK306229],100.152
